Results: the RNAGym collection of RNA variant scans (doi:10.7554/elife.90254)
Read counts are not given, so values of variants with three or more changes are uncertain.

B1: LINE1-mini (parent)
chain: GGCAGAGCUCAACACAGCGUGGCAAAGUGGCUGUGGCUAGACUGCC

Variants of: B1
Experiment: self-cleavage, relative activity (ratio to wild type); higher = more cleavage; in vitro, sequencing; the parent is a self-cleaving ribozyme

| Variant | self-cleavage |
| --- | --- |
| C10U A12U A25C | 0.07 |
| C15U G27C U28C G33U | 0.2 |
| G2U A12G G35U G40A U43C G44A | 0.01 |
| G29A U34G G36C | 0.07 |
| G1A U9A C37A | 0.69 |
| G17U A26G C45U | 0.06 |
| C8A G19A G35U C37A C46U | 0.01 |
| C3U C8G C10U A24U A26G | 0.15 |
| C3G G7C C18U G19U | 0.03 |
| C31G U34C G44A | 0.04 |
| C15U A16U U32C U34C | 0.07 |
| C10A C18U A26C G30U C37U | 0.01 |
| G7U C42U U43A | 0.21 |
| G1C C18A G29A G35C G36U | 0.13 |
| A4G G7A C10A | 0.06 |
| G22U U28G U38G | 0.04 |
| U9G C23A G30C G35A | 0.01 |
| G1C C8A G19A | 0.19 |
| C10G G22A C23A A25G | 0.08 |
| U20G A41G G44A | 0 |
| G22U G27U G40U | 0.13 |
| A6C G35U U38G | 0.01 |
| G7U C18G C45A | 0.09 |
| A4U U20G G29C | 0.05 |

| Variant | self-cleavage |
| --- | --- |
| C8A A26C U38G | 0.01 |
| C15G G19C G29C A39U G44A | 0.06 |
| G1C A14U A24C C46U | 0 |
| C3U C10A U34C C45A | 0.01 |
| G7C U20A C23G G35A C46G | 0.03 |
| C10A C15A G22C G29U | 0.04 |
| G5C A39G U43G | 0 |
| G7A A24U G33C | 0.09 |
| C15U C23A G27A C31A U38G C42A U43C | 0.04 |
| C13A G19C U32G | 0.01 |
| C37A C42G C46A | 0.03 |
| G7U G17A U28G | 0.03 |
| C8G C13U C15U G35C | 0.2 |
| A12G G19U U43A | 0.01 |
| A14C C37A C46A | 0.26 |
| C13U G22C G27C G30A | 0.03 |
| G2C G22U G27C C42U | 0.03 |
| U9C C10A A25C | 0.01 |
| G17C G29A C46U | 0.06 |
| A16U C37A G40A | 0.08 |
| G1C G7A C10U A25U A39G | 0 |
| C3G A4U C18A G29C | 0.09 |
| G5U G7U U20C C23G | 0.07 |
| C18U G27U G30U | 0.57 |

| Variant | self-cleavage |
| --- | --- |
| A14C U20G G22A A24U A25G | 0.21 |
| G21C G29C C46A | 0.88 |
| G5A G7A A14G C15U C31G | 0.16 |
| C15U G22U G27U U34C | 0.09 |
| G1U G2U C3U A12G | 0.05 |
| C10A G21A G22C A26G | 0.05 |
| A6U A11C G40U | 0.04 |
| A11U G40U C42A G44C | 0.03 |
| G5A G7A C10A A14C C46A | 0.63 |
| A4U C15A G33U | 0.08 |
| A11U C31U G44A | 0.04 |
| A6U A12U A14U G30A U34G | 0.25 |
| G7A A12G A14G G21C A41G U43G | 0.01 |
| A24C A25C C31A | 0.03 |
| A6C C18G U20G G35A | 0.05 |
| C13A C15U G22A C23A C37A | 0.19 |
| G1A G17C G29A | 0.18 |
| G5U C10U G30C | 0.02 |
| G2A C10U A11U G21A | 0.08 |
| G2A C3A A14U C18U G27A | 0.69 |
| A4G G7A C15A G36U | 0.11 |
| G1C C13U C15G A26U | 0.03 |
| G36C G40U C42A | 0 |
| A25U C31G U38G U43G | 0.06 |

| Variant | self-cleavage |
| --- | --- |
| A12G C23A U28A A39U | 0.01 |
| G7A G17A U38G | 0.01 |
| A14G G22C C46U | 0.04 |
| G1C C8G G21U U28A U34C C46A | 0.01 |
| C10A A16C C42U U43C C46A | 0 |
| C3U G5C G21A | 0.51 |
| C3U C8A A12U U32A | 0.01 |
| C3G A26U G27U U38G G40C | 0.06 |
| A4U C8A G21U | 0.8 |
| C3U A16U C23U G44U | 0.04 |
| A6C C8G G29U G44C | 0.02 |
| C3A C8A C13G | 0.4 |
| G7C C23G U34C | 0.04 |
| G2U A11C G27U C37A | 0.01 |
| C18G G19C G36U C45A | 0.08 |
| A12G C18A G36C | 0.05 |
| C13U C15G C23U A26G C31U | 0.65 |
| G7A C13A G17U A24U A25G | 0.04 |
| C10G G27U C46A | 0.22 |
| C15G G30A C31U | 0.02 |
| G5A G17U G21A | 0.04 |
| C10A G27C G36C C45U | 0.06 |
| G5A C18A C31U G35U C46U | 0.01 |
| G19C G27U U34A | 0.08 |

| Variant | self-cleavage |
| --- | --- |
| C15G C37U U43C G44A | 0.02 |
| U9G C13A C18G C23G C42U | 0.02 |
| U9C A11U G19C A24U A41C | 0 |
| C3A C8G C13A C15G C23A C31U | 0.1 |
| G19U U28A G33A A39U G44C | 0.05 |
| C10G G33C C46G | 0.01 |
| C18U G40A C46A | 0.02 |
| C13G C23A G27A U28G G40A | 0.03 |
| A6U C8G A41U | 0.05 |
| G2U C23G C45G | 0.08 |
| G5C A24U C31A | 0.07 |
| C10U A25C G35C G36C C46G | 0 |
| C3U U9C C13G C15A G27C | 0.03 |
| G7C A25U A39C | 0.09 |
| A6G C37U A41G | 0.03 |
| G1C G2C A14G U32G | 0.02 |
| G30C C37A A41U | 0.09 |
| C3U C10A C46U | 0.02 |
| G21A C23A C31U | 0.19 |
| G5C A25G G40U | 0.35 |
| G5A G33C A41C | 0.03 |
| G17C A26C C42A | 0.04 |
| A11C C13G G22C G29U | 0.04 |
| A12G G19U A24C C37G A41G | 0.01 |

| Variant | self-cleavage |
| --- | --- |
| C15G A16C C42A | 0.01 |
| C8G A12U A25G | 0.06 |
| C8G U9A C10A A41U | 0.03 |
| G1A C8U U32C | 0.02 |
| G1U G2C A16C G17C | 0.04 |
| G40U A41G C45G | 0.05 |
| A6G G7C A12G | 0.01 |
| C8U G35U A41C | 0.04 |
| A4U G5U A25C | 0.04 |
| G19A G22U G40U C45A | 0.03 |
| G2A A11U A16G U32G G36U U38A | 0.02 |
| G2A C3U A6U C8U U38C C46A | 0.4 |
| U34A G40U C45G | 0.01 |
| C15U U34A G36C | 0.04 |
| G5U C23G G40A | 0.01 |
| G2C C3A A14C G27C C37G A39C | 0.08 |
| G2U C3G G17C A24U U32G G40C | 0.11 |
| A16U C23A C45A | 0.05 |
| C13A U20A G29U A41U | 0.07 |
| G5A C13G A16G C18A A26U C42A C46G | 0.01 |
| C18A G21U C46A | 0.13 |
| G1U C15G U28A | 0.01 |
| A11G C31A U43G | 0.02 |
| A6G A11C U20A | 0.03 |

| Variant | self-cleavage |
| --- | --- |
| C18U G22A C45U | 1 |
| C3G A12C C13U G27A U34G C37G G44U | 0.02 |
| C18G U20A A26U G36A | 0.05 |
| C8U C13U U28G C46G | 0.51 |
| C15G G21U G27C | 0.03 |
| C8A C13A G17A C18A C31A G35C G36U U43A | 0.03 |
| A14C A24G U43A | 0.09 |
| C8A A12U U28C | 0.01 |
| G5U U20C G30A G35U G40U | 0.01 |
| G5C A12G U28A | 0.01 |
| A14G G19A A39U A41U U43G | 0.15 |
| G22U U38C G40A | 0.21 |
| G5U C13U G30A | 0.09 |
| C10A A16G C23A | 0.01 |
| G5U A16G G27C G35A C45U | 0.02 |
| C8G C13G A24U G29A | 0.15 |
| A11U G22A A24U | 0.15 |
| C13G A16C A39C | 0.03 |
| G1U G7C G17U A25U U32C G36A A41U | 0.02 |
| G2U C37U G44U C46G | 0.03 |
| G5C G22C A25U U28G U32C | 0.01 |
| G2U A41G C42G C46G | 0.01 |
| C8U A14C C15A U20C C31U | 0.09 |
